# Experimental data published in paper PMC6707232.
# The source holds more than one record for some entries. Only these are listed. The source may hold further records. Some entries list several cross-links; each record is another pair of residues.
# Key:
# Test in all cases: cross-linking mass spectrometry
# Settings in all cases: not determined
# COPS4 = COPS4 (UniProt Q9BT78)
# CUL2 = CUL2 (UniProt Q13617)
# GPS1 = GPS1 (UniProt Q13098)
# UniProt Q13098, sequence (Q13098 whole entry): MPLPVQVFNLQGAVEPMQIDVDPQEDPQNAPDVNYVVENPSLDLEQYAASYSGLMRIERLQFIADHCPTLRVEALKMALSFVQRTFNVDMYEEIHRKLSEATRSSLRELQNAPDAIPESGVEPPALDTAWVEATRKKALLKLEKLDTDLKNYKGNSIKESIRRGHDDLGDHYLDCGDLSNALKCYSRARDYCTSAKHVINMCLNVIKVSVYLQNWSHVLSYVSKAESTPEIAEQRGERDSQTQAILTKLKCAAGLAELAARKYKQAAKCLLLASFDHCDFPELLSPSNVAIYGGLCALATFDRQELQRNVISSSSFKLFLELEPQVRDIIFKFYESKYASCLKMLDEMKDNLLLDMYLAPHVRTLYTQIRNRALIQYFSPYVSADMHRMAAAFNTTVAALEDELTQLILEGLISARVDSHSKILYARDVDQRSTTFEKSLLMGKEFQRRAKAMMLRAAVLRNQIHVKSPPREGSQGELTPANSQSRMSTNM
# COPS2, sequence (P61201 whole entry): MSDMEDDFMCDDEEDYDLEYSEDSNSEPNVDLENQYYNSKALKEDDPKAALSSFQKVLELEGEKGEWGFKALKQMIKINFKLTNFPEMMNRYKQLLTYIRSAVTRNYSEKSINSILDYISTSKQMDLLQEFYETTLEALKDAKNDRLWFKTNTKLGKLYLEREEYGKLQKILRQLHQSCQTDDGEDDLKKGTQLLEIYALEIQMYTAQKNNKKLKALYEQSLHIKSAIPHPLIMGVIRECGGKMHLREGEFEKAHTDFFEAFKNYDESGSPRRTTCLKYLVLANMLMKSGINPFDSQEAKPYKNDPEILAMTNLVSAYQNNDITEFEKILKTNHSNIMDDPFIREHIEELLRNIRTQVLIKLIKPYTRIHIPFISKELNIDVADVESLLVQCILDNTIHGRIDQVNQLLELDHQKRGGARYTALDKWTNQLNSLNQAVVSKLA
# UniProt Q13617, sequence (Q13617 whole entry): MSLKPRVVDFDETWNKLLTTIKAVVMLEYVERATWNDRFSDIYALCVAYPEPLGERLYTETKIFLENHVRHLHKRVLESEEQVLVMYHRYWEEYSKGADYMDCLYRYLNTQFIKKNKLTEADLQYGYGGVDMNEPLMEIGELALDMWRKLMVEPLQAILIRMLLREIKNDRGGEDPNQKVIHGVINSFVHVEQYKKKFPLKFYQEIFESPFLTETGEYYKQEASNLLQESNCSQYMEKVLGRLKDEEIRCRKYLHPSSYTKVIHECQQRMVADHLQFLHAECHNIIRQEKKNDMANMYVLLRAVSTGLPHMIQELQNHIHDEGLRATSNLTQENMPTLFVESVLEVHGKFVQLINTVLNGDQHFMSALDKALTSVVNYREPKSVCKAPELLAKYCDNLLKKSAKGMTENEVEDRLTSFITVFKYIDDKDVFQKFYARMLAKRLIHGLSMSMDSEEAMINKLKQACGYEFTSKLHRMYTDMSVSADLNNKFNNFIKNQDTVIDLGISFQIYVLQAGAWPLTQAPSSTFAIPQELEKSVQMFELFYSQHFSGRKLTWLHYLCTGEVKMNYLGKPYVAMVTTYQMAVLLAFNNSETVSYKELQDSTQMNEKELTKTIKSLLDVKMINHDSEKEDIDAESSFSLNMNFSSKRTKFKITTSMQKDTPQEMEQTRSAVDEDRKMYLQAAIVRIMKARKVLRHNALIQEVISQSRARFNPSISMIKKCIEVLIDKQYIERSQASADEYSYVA
substance,measurement,setting,value
"COPS2, P61201",cross-linked residues,COPS4,K361 - K337 and K376 - K337
same,cross-linked residues,CUL2,K64 - K404 and K157 - K489 and K225 - K462 and K263 - K462
same,cross-linked residues,GPS1,K415 - K438 and K426 - K438
